Data on 4 molecules can be found in article PMC8874776.

Sequences and labels used below:
B1: truncated VOZ1, VOZ1^96-310, in the vector pGADT7 (AD) (domain or fragment, UniProt Q9SGQ0 96-310)
chain: DEEDDATSKLAAPKPEPADQNLEAGKAAVFQRGYNLVQGKSEHGLPLVDNCKDLSLAAGNNFDGTAPLEYHQQYDLQQEFEPNFNGGFNNCPSYGVVEGPIHISNFIPTICPPPSAFLGPKCALWDCPRPAQGFDWFQDYCSSFHAALAFNEGPPGMNPVVRPGGIGLKDGLLFAALSAKAGGKDVGIPECEGAATAKSPWNAPELFDLTVLESE
B2: full-length VOZ1 in the vector pGADT7 (AD) (protein, UniProt Q9SGQ0 1-486)
chain: MTGKRSKTNCRSASHKLFKDKAKNRVDDLQGMLLDLQFARKESRPTDVTLLEEQVNQMLREWKSELNEPSPASSLQQGGTLGSFSSDICRLLQLCDEEDDATSKLAAPKPEPADQNLEAGKAAVFQRGYNLVQGKSEHGLPLVDNCKDLSLAAGNNFDGTAPLEYHQQYDLQQEFEPNFNGGFNNCPSYGVVEGPIHISNFIPTICPPPSAFLGPKCALWDCPRPAQGFDWFQDYCSSFHAALAFNEGPPGMNPVVRPGGIGLKDGLLFAALSAKAGGKDVGIPECEGAATAKSPWNAPELFDLTVLESETLREWLFFDKPRRAFESGNRKQRSLPDYNGRGWHESRKQIMVEFGGLKRSYYMDPQPLHHFEWHLYEYEINKCDACALYRLELKLVDGKKTSKGKVSNDSVADLQKQMGRLTAEFPPENNTTNTTNNNKRCIKGRPKVSTKVATGNVQNTVEQANDYGVGEEFNYLVGNLSDYYIP
B3: full-length PHL3 in the vector pGADT7 (AD) (protein, UniProt Q8LAJ7 1-292)
chain: MYSAIRSSLPLDGSLGDYSDGTNLPIDACLVLTTDPKPRLRWTSELHERFVDAVTQLGGPDKATPKTIMRTMGVKGLTLYHLKSHLQKFRLGRQSCKESIDNSKDVSCVAESQDTGSSSTSSLRLAAQEQNESYQVTEALRAQMEVQRRLHEQLEVQRRLQLRIEAQGKYLQSILEKACKAIEEQAVAFAGLEAAREELSELAIKASITNGCQGTTSTFDTTKMMIPSLSELAVAIEHKNNCSAESSLTSSTVGSPVSAALMKKRQRGVFGNGDSVVVGHDAGWVMPSSSIG
B4: full-length FSD1 in the vector pGADT7 (AD) (protein, UniProt P21276 1-212)
chain: MAASSAVTANYVLKPPPFALDALEPHMSKQTLEFHWGKHHRAYVDNLKKQVLGTELEGKPLEHIIHSTYNNGDLLPAFNNAAQAWNHEFFWESMKPGGGGKPSGELLALLERDFTSYEKFYEEFNAAAATQFGAGWAWLAYSNEKLKVVKTPNAVNPLVLGSFPLLTIDVWEHAYYLDFQNRRPDYIKTFMTNLVSWEAVSARLEAAKAASA

These are yes or no findings as the source states them, for the method shown. Some entries that bind do so weakly or less than the wild type. Tags and fused reporters may be left off the sequences shown.

The test concerns the target PRU2 (PHOSPHATE RESPONSE UBIQUITIN E3 LIGASE 2), full length, in the bait vector pGBKT7 (BD) (Arabidopsis thaliana) (UniProt Q6NQG7). The test is described as follows: two-hybrid; pairwise test: preys in pGADT7 co-transformed with pGBKT7-PRU2 into yeast strain AH109, SD/-Leu/-Trp/-His medium.
For B1, the binding entry is “binds”.

For B2, the binding entry is reported as “no binding”. With B3 the entry was “binds”. With B4 the entry was “binds”.
